The values that follow come from the supplement of paper PMC9446081.

In all, about 39,000 compounds went through this assay and about 220 (0.56%) showed activity. This is one part of the list.
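Note: static incubation at 37 °C against the wild-type strain, values averaged over two biological replicates.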

The assay concerns Escherichia coli K-12 BW25113. As to the kind of experiment: relative growth (OD600 normalised to plate interquartile mean) (fraction); higher = less growth inhibition, active = 0.2 or less. Particulars: 50 µM; LB; incubation time: overnight (16-24 h).
For the molecule `C[C@H]1CN([C@@H](C)CO)C(=O)c2cc(C#CC3(O)CCCC3)cnc2O[C@H]1CN(C)C(=O)Nc1ccc2c(c1)OCO2`, the relative growth was inactive: 0.972.
As for `C[C@@H]1CCCCO[C@@H](CN(C)S(=O)(=O)c2cccs2)[C@@H](C)CN([C@@H](C)CO)C(=O)c2cc(NS(C)(=O)=O)ccc2O1`, the figure is inactive: 1.02; as for `C[C@@H]1CCCCO[C@@H](CN(C)Cc2ccc(Cl)c(Cl)c2)[C@@H](C)CN([C@H](C)CO)C(=O)c2cc(NS(=O)(=O)c3ccc(Cl)cc3)ccc2O1`, inactive: 1.01.
As for `C[C@@H]1CCCCO[C@H](CN(C)C(=O)Cc2ccccc2)[C@@H](C)CN([C@H](C)CO)C(=O)c2cc(NC(=O)NC3CCCCC3)ccc2O1`, the figure is inactive: 1.01; as for `COC[C@]1(O)CCN(C(=O)CCN(C)S(C)(=O)=O)CC1(C)C`, inactive: 1.
Regarding `C[C@@H]1CN([C@@H](C)CO)C(=O)c2cc(NS(=O)(=O)c3ccccc3)ccc2O[C@@H](C)CCCCO[C@H]1CN(C)Cc1ccc(C(=O)O)cc1`, the relative growth is inactive: 0.996.
As for `CC(C)NC(=O)N(C)C[C@H]1OCCCC[C@@H](C)Oc2ccc(NC(=O)Nc3cccc4ccccc34)cc2C(=O)N([C@@H](C)CO)C[C@H]1C`, the figure is inactive: 0.997; as for `COCC(=O)Nc1ccc2c(c1)C(=O)N(C)[C@@H]1CC[C@@H](CC(=O)NCc3ccc(OC)cc3)O[C@@H]1CO2`, inactive: 0.995; as for `C=C1C[C@@H]2CC[C@@]34C[C@H]5O[C@H]6[C@@H](O3)[C@H]3O[C@H](CC[C@@H]3O[C@H]6[C@H]5O4)CC(=O)C[C@@H]3[C@@H](OC)[C@@H](C[C@H](O)CN)O[C@H]3C[C@H]3O[C@@H](CC[C@@H]1O2)C[C@@H](C)C3=C`, inactive: 1.03.
Consider `Cn1cccc1CNCCCN1CCOCC1`, for which the relative growth was inactive: 1.
Under `C[C@@H]1CN([C@H](C)CO)C(=O)CCCn2cc(nn2)CO[C@H]1CN(C)Cc1cccc2c1OCCCO2` stands inactive: 0.992; under `C[C@H]1CN([C@@H](C)CO)C(=O)c2cc(NC(=O)Cc3cn(C)c4ccccc34)ccc2O[C@@H]1CN(C)C(=O)Nc1cccc2ccccc12`, inactive: 1.03.
Under `CCCNC(=O)N(C)C[C@H]1Oc2cc(C#Cc3cccc(F)c3)ccc2S(=O)(=O)N([C@H](C)CO)C[C@H]1C` stands inactive: 0.979; under `COc1ccc2c3c([nH]c2c1)[C@@H](CO)N(CC1CCOCC1)C[C@]13CCN(CC1)C(=O)C1CCOCC1`, inactive: 1.02; under `Cc1noc(C)c1NC(=O)N(C)C[C@H]1OCCCC[C@H](C)Oc2ccc(NC(=O)c3ccccc3)cc2C(=O)N([C@@H](C)CO)C[C@@H]1C`, inactive: 1.01.
As for `COCC(=O)N(C)C[C@H]1Oc2cc(C#CCC3CCCC3)ccc2S(=O)(=O)N([C@@H](C)CO)C[C@H]1C`, the figure is inactive: 1.03; as for `CO[C@@H]1CN(C)C(=O)c2ccc(NC(=O)C3CC3)cc2OC[C@H](C)N(C(=O)Cc2ccccn2)C[C@@H]1C`, inactive: 0.988; as for `C[C@H]1CN([C@@H](C)CO)S(=O)(=O)c2ccc(-c3ccccc3F)cc2O[C@@H]1CN(C)Cc1cncnc1`, inactive: 1.
Regarding `COc1ccc(NC(=O)Nc2ccc3c(c2)CC(=O)N([C@@H](C)CO)C[C@@H](C)[C@@H](CN(C)C(=O)Nc2cccc4ccccc24)O3)cc1`, the relative growth is inactive: 0.972.
Under `C[C@H]1CCCCO[C@@H](CN(C)C(=O)c2ccccc2)[C@@H](C)CN([C@@H](C)CO)C(=O)c2cc(NC(=O)CCC(F)(F)F)ccc2O1` stands inactive: 0.996; under `O=C([C@H]1[C@H](CO)[C@H]2Cn3c(cccc3=O)[C@@H]1N2S(=O)(=O)c1ccccc1F)N1CCOCC1`, inactive: 1.02.
For `CS(=O)(=O)CCOC(=O)C1=CC(c2ccc(CO)cc2)=C[C@@H](C2CC2)N(Cc2cc3c(cc2Br)OCO3)C=C1C(=O)OCCS(C)(=O)=O`, the relative growth was inactive: 1.03.
Under `C[C@@H]1CN([C@@H](C)CO)C(=O)c2cccc(NC(=O)Nc3ccc(F)cc3)c2O[C@H]1CN(C)C(=O)Nc1cccc2ccccc12` stands inactive: 1.02; under `C[C@@H]1CCCCO[C@H](CN(C)C(=O)C2CCCCC2)[C@H](C)CN([C@@H](C)CO)C(=O)c2cc(NC(=O)CCCCCC(=O)Nc3ccccc3N)ccc2O1`, inactive: 0.962.
For the molecule `C[C@H](CO)N1C[C@H](C)[C@H](CN(C)C(=O)Nc2ccc3c(c2)OCO3)Oc2ccc(NC(=O)Cn3cnnn3)cc2CC1=O`, the relative growth is inactive: 1.01.
As for `O=C(NCCO)c1cc2ccccc2c(=O)s1`, the figure is inactive: 0.975.
For the molecule `O=C1/C(=C/c2cccs2)CCC/C1=C\c1cccs1`, the relative growth was inactive: 0.963.
As to `C[C@@H]1CN([C@@H](C)CO)C(=O)c2cccc(NC(=O)Nc3ccc4c(c3)OCO4)c2O[C@@H]1CN(C)Cc1ccc(-c2ccccc2)cc1`, the relative growth was inactive: 1.02.
As for `CN1CCN(C(=O)C[C@@H]2CC[C@@H]3[C@H](COc4ccc(NC(=O)C5CCCCC5)cc4C(=O)N3C)O2)CC1`, the figure is inactive: 1.02; as for `CNc1nc(N2CCCC2)nc(N)c1[N+](=O)[O-]`, inactive: 0.994.
Under `Cc1ccc(S(=O)(=O)N(C)C[C@H]2Oc3ccc(NC(=O)CCN4CCOCC4)cc3CC(=O)N([C@H](C)CO)C[C@H]2C)cc1` stands inactive: 1.01.
As for `C[C@@H]1CN([C@H](C)CO)C(=O)c2cc(NS(=O)(=O)c3ccc(F)cc3)ccc2O[C@@H](C)CCCCO[C@H]1CN(C)C(=O)C1CCCCC1`, the figure is inactive: 0.988; as for `C[C@@H]1CN([C@@H](C)CO)C(=O)c2cccc(NS(=O)(=O)c3ccccc3)c2O[C@@H]1CN(C)S(=O)(=O)c1ccccc1`, inactive: 1.
Regarding `C[C@H]1CN([C@@H](C)CO)C(=O)Cc2cc(NS(=O)(=O)c3ccccc3)ccc2O[C@@H]1CN(C)S(C)(=O)=O`, the relative growth is inactive: 0.961.
As for `O=S1(=O)CCCCN1`, the figure is inactive: 1.06; as for `C[C@H]1CN([C@@H](C)CO)S(=O)(=O)c2ccc(C#CC3(O)CCCC3)cc2O[C@H]1CN(C)C(=O)Nc1ccccc1`, inactive: 1.02; as for `COc1ccc(S(=O)(=O)N(C)C[C@H]2OCCCC[C@H](C)Oc3ccc(NC(=O)c4ccccc4)cc3C(=O)N([C@H](C)CO)C[C@H]2C)cc1`, inactive: 1.03.
